# Hit rate of the full screen: of about 43,000 compounds, about 200 (0.47%) were called active. Another 12% or so got no clear call; they are omitted. Calls follow the shape of the dose curve; as a rule, active = well fitted cell-killing curve with a large enough effect; inconclusive = small, poorly fitted or top-dose-only effect, or effect the other way; inactive = flat fitted curve, though single readings scatter. The list shows a part of the results.
# Experiment: Cell viability qHTS assay in S16 Pmp22-F2sN cells; also: nearly all actives have a fitted effect of over 65% in size
# Settings: S16 Pmp22-F2sN Schwann cells (luciferase reporters placed in the Pmp22 gene) viability, CellTiter-Glo, 24 h; series mostly up to 57.5 µM; activity change, negative = cytotoxicity: at the top concentration
# Procedure, shortened: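 Luminescence from CellTiter-Glo, read by CCD camera after a 15 min room-temperature incubation, served as the viability signal. Reporter Schwann cells (S16 Pmp22-F2sN) had been treated with pin-transferred compounds for 24 h at 37C.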
# % is scaled to controls: 0 for no effect and ±100 for the full control effect.
row,Structure (SMILES),"activity change, negative = cytotoxicity"
1,Cc1cccc2c(=O)cc(CSc3ccccc3NC(=O)C(C)(C)C)[nH]c12,inactive: 16.9%
2,CCOC(=O)c1cc(S(=O)(=O)NCc2ccc(OC)cc2)[nH]n1,inactive: -0.0199%
3,CCCC(=O)Nc1ccccc1C(=O)OCc1cc(=O)n2nc(C(C)C)sc2n1,inactive: 8.88%
4,Cc1cc(C)cc(NC(=O)N2CCN(C(=O)c3nsc4ccccc34)CC2)c1,inactive: 2.9%
5,COc1ccc(OC)c(S(=O)(=O)N2CCN(Cc3nc4ccc(C)cc4o3)CC2)c1,inactive: 0.586%
6,CCN(C(=O)Cn1c(=O)n(Cc2ccc3c(c2)OCO3)c(=O)c2ccc(C(=O)NC3CCCCC3)cc21)c1cccc(C)c1,inactive: 0.824%
7,COc1ccc(NC(=O)c2cc3c(=O)n(Cc4cccnc4)ccc3nc2C)c(OC)c1,inactive: -1.59%
8,O=C(Nc1ccc(N2CCOCC2)c(C(=O)O)c1)c1ccc(Br)cc1,inactive: 2.96%
9,Cc1ccc(CNC(=O)Cn2ccn(-c3ccc(F)cc3)c(=O)c2=O)cc1,inactive: -0.0951%
10,Cc1cccc(CN2C(=O)c3ccccc3S(=O)(=O)c3ccc(C(=O)NC4CCCCC4)cc32)c1,inactive: -8.28%
11,Cc1ccc(NC(=O)c2c(C)oc3ncn(CC(C)C)c(=O)c23)nc1,inactive: -28.2%
12,Cc1ccc2nc3c(cc(C(=O)NCc4ccco4)c(=N)n3C(C)C)c(=O)n2c1,inactive: 10.7%
13,CCn1c(=O)c2cc(C(=O)NCCc3ccc(Cl)cc3)sc2c2ccccc21,inactive: 21.1%
14,CCn1c(=O)c2sccc2n2c(CCC(=O)Nc3ccc(C(C)C)cc3)nnc12,inactive: 15.9%
15,Cc1ccc(N(C)C(=O)C2CCN(S(=O)(=O)c3cn(C)cn3)CC2)cc1,inactive: 5.52%
16,COc1cc(C2c3c(oc4ccccc4c3=O)C(=O)N2Cc2ccc(C)cc2)ccc1O (stereo not given),inactive: 8.85%
17,CC1CCN(CCCNC(=O)CN2C(=O)CSc3ccc(S(=O)(=O)N4CCOCC4)cc32)CC1,inactive: 16.9%
18,COc1ccc(OCC(=O)NC(Cc2c[nH]c3ccccc23)C(=O)O)cc1 (stereo not given),inactive: -2.89%
19,CCc1nnc(SC(CC)C(=O)Nc2cc(C)ccc2C)c2cc3occc3n12 (stereo not given),inactive: -6.11%
20,O=C(NCc1ccc(Cl)cc1)c1ccc(NC(=O)N2CC3CCCN3c3ccccc32)cc1 (stereo not given),inactive: 1.57%
21,Cc1ccc(CNC(=O)CCS(=O)(=O)c2cc3c(cc2Cl)NC(=O)CO3)cc1,inactive: 4.04%
22,COc1ccc(N2CCN(CC(O)COc3ccc(C)cc3C)CC2)cc1 (stereo not given),inactive: -28.1%
23,CC1=C(c2ccc(C)cc2)S(=O)(=O)NC1=NCCCN1CCN(c2cc(C)ccc2C)CC1,inactive: 2.33%
24,Cc1ccc(Cl)cc1N1CCN(C(=O)CN2C(=O)COc3ccc(S(=O)(=O)N4CCC(C)CC4)cc32)CC1,inactive: 6.21%

row,Structure (SMILES),"activity change, negative = cytotoxicity"
1,CC(C)(C)C(=O)NC1(C(F)(F)F)NC(=O)N(c2ccc(F)cc2)C1=O (stereo not given),inactive: 10.3%
2,COc1ccc(N2CCN(c3ncnc4c3cnn4-c3ccc(C)c(Cl)c3)CC2)cc1,inactive: 4.11%
3,Cc1nn(C(=O)c2ccccc2)c(C)c1S(=O)(=O)N1CCOCC1,inactive: 8.09%
4,COc1ccc(CNC(=O)c2ccc(-c3nc(CSc4ccc(C)cc4)c(C)o3)cc2)cc1OC,inactive: -0.971%
5,CCC(=O)N1CCc2cc(S(=O)(=O)NC(C(=O)NCc3ccccc3Cl)C(C)C)ccc21 (stereo not given),inactive: 2.87%
6,Cc1c(C(=O)NCc2ccccc2Cl)sc2nc(-c3ccc(F)cc3)cn12,inactive: -0.26%
7,O=C(NCc1ccc(F)cc1)c1cc(Sc2ccc(F)cc2F)nc2ccccc12,inactive: -3.3%
8,CCOC(=O)C1CCN(C(=O)Cn2c(-c3cccs3)cc3cc(Cl)ccc32)CC1,inactive: 3.79%
9,Cc1c(CC(=O)N2CCCCC2)c(=O)oc2cc3occ(C(C)(C)C)c3cc12,inactive: 11.5%
10,COc1ccc(-c2cn3cccnc3n2)cc1NC(=O)COc1ccccc1,inactive: 17%
11,CCC1=Nc2cc(C(=O)NCc3ccccc3OC)ccc2Sc2ccc(Cl)cc21,inactive: -18.6%
12,COc1ccc(N2C(=O)CSC23C(=O)N(Cc2ccccc2F)c2ccccc23)cc1Cl (stereo not given),inactive: -0.247%
13,Cc1ccc(S(=O)(=O)C2(C(=O)Nc3ccc(C)c(Cl)c3)CC2)cc1,inactive: -1.55%
14,CCC(=O)N1c2ccccc2CC1C(=O)NCCc1ccccc1Cl (stereo not given),inactive: -5.81%
15,Cc1ccc(OCC(=O)Nc2ccc(OCc3cc(=O)n4ccsc4n3)cc2)cc1,inactive: -1.74%
16,Cc1cc(C)c2c(n1)SCC(=O)N2CC(=O)Nc1ccc(C)c(C)c1,inactive: 2.05%
17,COCCNc1ncnc2c1cnn2-c1cc(Cl)ccc1C,inactive: 3.84%
18,Cn1nc(C(=O)NCc2cccc(Cl)c2)c2c1-c1ccccc1SC2,inactive: -1.54%
19,CC(C)c1ccc(NC(=O)c2cn(C3CCCCC3)c(=O)c3c2c2ccccc2n3C)cc1,inactive: -3.83%
20,COc1ccc(Nc2nc3c(S(=O)(=O)c4ccccc4)nnn3c3ccc(Cl)cc23)c(OC)c1,inactive: -11.7%
21,Fc1ccc(-c2cc(-c3nc(-c4ccccc4)no3)[nH]n2)cc1,inactive: 0.0218%
22,COc1ccccc1C1=NS(=O)(=O)N(C)C(C(=O)Nc2cc(OC)c(OC)c(OC)c2)=C1,inactive: -26.9%
23,CC(C)Cn1cc(NC(=O)NCc2ccccc2)c2ccccc2c1=O,inactive: -2.15%
24,Cc1ccc2c(c1)c1c(c(=O)n(-c3cccc(Cl)c3)c(=O)n1CC(=O)c1ccc(Cl)cc1)n2C,inactive: 7.67%

row,Structure (SMILES),"activity change, negative = cytotoxicity"
1,CCCCn1c(=N)c(S(=O)(=O)c2ccccc2)cc2c(=O)n3cccc(C)c3nc21,inactive: 0.519%
2,Cc1nc2nc(SCC(=O)Nc3cccc(Cl)c3)nn2c(C)c1Cc1ccccc1,inactive: -5.99%
3,Cc1ccccc1NC(=O)N1CCc2cc(S(=O)(=O)N3CCC(C)CC3)ccc21,inactive: 0.856%
4,COc1ccc(-c2nc(C)c(CCNC(=O)c3ccc(F)c(F)c3)s2)cc1,inactive: 10.8%
5,CCCCn1cc(S(=O)(=O)c2ccc(OCC)cc2)c(=O)c2cc(OC)c(OC)cc21,inactive: -5.78%
6,CCc1ccc(-n2nc3ccc(NC(=O)c4cc(Cl)c(OC)c(Cl)c4)cc3n2)cc1,inactive: -1.47%
7,CCOc1ccc(CNC(=O)Cn2nc(C)n3cccc3c2=O)cc1,inactive: -0.604%
8,Cc1ccc(NC(=O)CN(CCc2ccccc2)S(=O)(=O)c2ccccc2)c(C)c1,inactive: 0.848%
9,COC(=O)c1cccc(NC(=O)N(C)CCc2c(C)nn(C)c2C)c1,inactive: 3.61%
10,Cc1ccc(CNC(=O)c2cccc(N3CCCS3(=O)=O)c2)cc1,inactive: 9.5%
11,CN(C(=O)CSc1nc2ccc(NC(=O)c3ccccc3F)cc2s1)c1ccccc1,inactive: -6.68%
12,COCCN1Cc2cccc(C(=O)Nc3ccc(C)c(F)c3)c2C1=O,inactive: -6.83%
13,Cc1cc(C)cc(NC(=O)C(=O)NCC(c2ccc3c(c2)OCO3)N2CCOCC2)c1 (stereo not given),inactive: 6.72%
14,Cc1ccc(CNC(=O)Cn2c(=O)n(Cc3ccccc3)c(=O)c3c2c2cc(C)ccc2n3C)cc1,inactive: -1.05%
15,COc1cc(N2C(=O)CSC23C(=O)N(C)c2ccccc23)cc(OC)c1OC (stereo not given),inactive: 22.7%
16,CCOc1ccc(N2CC(C)Cn3c2nc2c3c(=O)n(CC(=O)O)c(=O)n2C)cc1 (stereo not given),inactive: 18.3%
17,CCNS(=O)(=O)c1cc(-c2nnc(Nc3cccc(C(F)(F)F)c3)c3ccccc23)ccc1C,inactive: 9.28%
18,CCOc1cc(C2C(C(=O)Nc3ccccc3)=C(C)Nc3ncnn32)cc(Br)c1O (stereo not given),inactive: 15%
19,Cc1cc2c(cc1S(=O)(=O)N(CCO)Cc1ccccc1)OCC(=O)N2,inactive: 1.07%
20,Cc1ccc(C)c(N2CCN(C(=O)C3CCN(S(=O)(=O)c4ccc5[nH]c(=O)oc5c4)CC3)CC2)c1,inactive: 0.815%
21,CCc1ccc2nc(N3CCN(C(=O)c4ccccc4)CC3)sc2c1,inactive: -28.2%
22,CCc1cccc(CC)c1N(COC)C(=O)Cn1c(CC)nc2ccccc21,inactive: -2.1%
23,Cc1ccc(C)c(NC(=O)CCS(=O)(=O)c2cccc3nsnc23)c1,inactive: 10.6%
24,Cc1ccc(NC(=O)Cn2c(CCC(=O)O)ccc2-c2cccs2)cc1Cl,inactive: 0.914%

row,Structure (SMILES),"activity change, negative = cytotoxicity"
1,Oc1c(C(c2ccccc2F)N2CCC3(CC2)OCCO3)sc2nc(-c3ccco3)nn12 (stereo not given),inactive: 1.03%
2,CCCCN(C(=O)Nc1ccc(Cl)cc1)C1CCN(C(C)=O)CC1,inactive: -7.36%
3,CC(=O)c1cccc(NC(=O)C2=CC(c3ccc(F)cc3)=NS(=O)(=O)N2C)c1,inactive: 0.566%
4,Cc1cccc(N2CCN(C(=O)CCCn3c(=O)[nH]c4ccsc4c3=O)CC2)c1C,inactive: 2.16%
5,CCCCCCc1c(C)c2c(cc(C)c3c(C)c(C)oc32)oc1=O,inactive: -1.02%
6,O=C1CC(c2nc3ccccc3n2CCC2CCCCC2)CN1c1ccccc1Cl (stereo not given),inactive: 23.8%
7,Cc1ccc(NC(=O)Cn2c(=O)n(CCCC(=O)NCc3ccc4c(c3)OCO4)c(=O)c3ccccc32)cc1,inactive: 10.8%
8,Cc1ccc2onc(CC(=O)N3CCN(c4ccc(Cl)cc4)CC3)c2c1,inactive: 4.25%
9,CCN(c1ccc(Cl)cc1)S(=O)(=O)c1nnc(NC(=O)c2ccco2)s1,inactive: -0.0378%
10,COc1ccc(OC)c(CNC(=O)c2ccc(Sc3ccc(Cl)cc3)c(NC(C)=O)c2)c1,inactive: 8.92%
11,CCOC(=O)c1cc2c(=O)n3ccccc3nc2n(CCCOC)c1=NC(=O)c1c(-c2ccccc2Cl)noc1C,inactive: -15.2%
12,Cc1ccc(-n2ncc(C(=O)N3CCN(C4CCCCC4)CC3)c2C2CCN(C(=O)OC(C)(C)C)CC2)cc1C,inactive: -27.1%
13,CN(C(=O)Cn1c(=O)n(CCC(=O)NCc2ccc3c(c2)OCO3)c(=O)c2sccc21)c1ccccc1,inactive: -1.39%
14,Cc1ccc(NC(=O)c2sc3nc4n(c(=O)c3c2C)CCCCC4)c(Br)c1,inactive: 0.897%
15,Cc1nc2nc(C)c(NS(=O)(=O)c3ccc(F)cc3)c(=O)n2[nH]1,inactive: 6.1%
16,O=C(Cn1cnc(S(=O)(=O)N2CCCC2)c1)Nc1cccc(F)c1,inactive: 2.07%
17,CCN(CC)CCCNC(=O)CSc1nc2nc(C)c(Cc3ccccc3C)c(C)n2n1,inactive: 5.48%
18,COc1ccc(NC(=O)Cn2nc(SC)c(S(=O)(=O)c3ccc(C)cc3)c2N)cc1OC,inactive: 24.1%
19,Fc1ccccc1N1CCN(c2ncnc3c2nc2n3CCCCC2)CC1,inactive: 12.6%
20,CCC(=O)N1CCc2cc(Br)cc(S(=O)(=O)CCC(=O)N(C)c3cccc(C)c3)c21,inactive: 6.26%
21,CCOc1ccc(NC(=O)CC2C(=O)N(c3ccc(F)cc3)C(=O)N2CCc2sccc2C)cc1 (stereo not given),inactive: -22%
22,COc1ccc(CNc2nc3c(-c4ccc(C)cc4)nnn3c3ccccc23)cc1,inactive: 7.43%
23,COc1ccc(-n2nc(C(=O)NCCCOC(C)C)c3c4ccccc4n(C)c3c2=O)cc1,inactive: -13.8%

# From PubChem BioAssay AID1508642 (National Center for Advancing Translational Sciences (NCATS), 2021)
